SMILES strings stand for the structures. Out of some 310,000 compounds screened, about 14,000 (4.5%) showed an effect of 50% or more. The effect is printed as a negative number. The list shows a part of the results.
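Note: peak tail current of the secondary pulse compared with the same well before compound.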

human ether-à-go-go-related gene (hERG) potassium channel, sequence (Q12809 whole entry, looked up): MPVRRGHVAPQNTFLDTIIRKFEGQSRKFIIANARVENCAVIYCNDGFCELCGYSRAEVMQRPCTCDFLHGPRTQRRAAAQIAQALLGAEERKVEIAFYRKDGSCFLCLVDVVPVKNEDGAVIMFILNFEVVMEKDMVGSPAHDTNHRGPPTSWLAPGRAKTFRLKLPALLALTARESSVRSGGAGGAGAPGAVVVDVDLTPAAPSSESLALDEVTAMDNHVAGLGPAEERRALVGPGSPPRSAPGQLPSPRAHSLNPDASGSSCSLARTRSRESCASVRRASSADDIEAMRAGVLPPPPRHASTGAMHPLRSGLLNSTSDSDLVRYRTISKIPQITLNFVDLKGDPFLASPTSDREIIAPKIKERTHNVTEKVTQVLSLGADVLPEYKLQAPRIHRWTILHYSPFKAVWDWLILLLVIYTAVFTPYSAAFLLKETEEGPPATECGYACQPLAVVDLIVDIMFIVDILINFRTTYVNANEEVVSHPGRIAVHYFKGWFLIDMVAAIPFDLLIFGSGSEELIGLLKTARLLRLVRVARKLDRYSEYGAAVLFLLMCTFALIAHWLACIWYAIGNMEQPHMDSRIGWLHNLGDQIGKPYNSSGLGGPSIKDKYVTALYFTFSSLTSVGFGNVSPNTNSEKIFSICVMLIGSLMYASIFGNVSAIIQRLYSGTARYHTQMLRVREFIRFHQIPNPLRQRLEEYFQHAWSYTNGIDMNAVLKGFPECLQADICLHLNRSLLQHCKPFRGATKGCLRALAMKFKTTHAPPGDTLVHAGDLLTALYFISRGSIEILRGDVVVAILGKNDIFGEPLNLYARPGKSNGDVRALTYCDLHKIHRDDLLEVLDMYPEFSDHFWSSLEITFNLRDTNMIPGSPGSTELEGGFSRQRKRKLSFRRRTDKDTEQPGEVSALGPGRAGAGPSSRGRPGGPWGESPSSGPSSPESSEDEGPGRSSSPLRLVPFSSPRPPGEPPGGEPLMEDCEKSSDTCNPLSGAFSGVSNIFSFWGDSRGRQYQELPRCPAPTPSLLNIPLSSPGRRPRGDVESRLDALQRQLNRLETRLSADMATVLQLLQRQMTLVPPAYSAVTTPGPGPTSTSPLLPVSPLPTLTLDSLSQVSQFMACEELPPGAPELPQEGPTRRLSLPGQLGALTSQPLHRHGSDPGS

This experiment addresses human ether-à-go-go-related gene (hERG) potassium channel (human, UniProt Q12809). The experiment can be described thus: primary screen, population patch clamp on CHO cells stably expressing hERG.
In the case of `Cc1ccc(S(=O)(=O)N2CCCC2)cc1S(=O)(=O)N1CCCC1`, the “hERG current change (%, negative = inhibition) at 10uM” value is given as -11.1%. Next, `CC1CN(C(=S)SCC(=O)c2ccc(Cl)cc2)CC(C)O1` (centres unmarked): -4.66%. Next, `Cc1ccc(S(=O)(=O)NCC(=O)Nc2cccc([N+](=O)[O-])c2)cc1`: -14.8%. Next, `Cc1ccc(N2CC(C(=O)Nc3c4c(nn3C(C)(C)C)CS(=O)(=O)C4)CC2=O)cc1` (centres unmarked): 19.3%; `COCC(C)NC(=O)c1ccc(N(C)C)cc1` (centres unmarked): 5.77%; `CSc1ccccc1NC(=O)CN(C)C(=O)/C=C/c1ccccc1`: -8.37%.

For `C/C(CC(=O)Nc1ccccc1C(F)(F)F)=N\NC(=O)c1cnccn1`, the “hERG current change (%, negative = inhibition) at 10uM” value was 4.32%. The value for `COCCCNC(=S)N/N=C/c1ccc(OC)cc1` was 11.3%; that for `CC(C)c1nnc(SCC(=O)NCc2ccco2)n1C` was 1.44%; that for `COc1ccc(N2C(=O)CC(N3CCN(C4CCc5ccccc5C4)CC3)C2=O)cc1` (centres unmarked) was -61.7%.

With `CN(C)C=NC(=O)c1cccn1-c1ncc(C(F)(F)F)cc1Cl`, the “hERG current change (%, negative = inhibition) at 10uM” value is reported as 8.71%. For `Cc1cc(C)cc(OCCNC(=O)C(C)N2C(=O)c3ccccc3C2=O)c1` (centres unmarked), the “hERG current change (%, negative = inhibition) at 10uM” value is -7.64%.

Consider `O=C(NCCS(=O)(=O)NCc1cccnc1)c1ccccc1`, for which the “hERG current change (%, negative = inhibition) at 10uM” value is recorded as 6.42%. Next, `CC(=O)c1c(C)nc(C)nc1NC(=O)Cc1ccccc1`: 9.86%; `Cc1ccccc1NC(=S)N(Cc1cccs1)C1CCCC1`: 5.42%.

As for `COc1ccc(-c2cn3cc([N+](=O)[O-])ccc3n2)cc1OC`, the “hERG current change (%, negative = inhibition) at 10uM” value was -7.47%. The value for `O=S1CCCSC1c1cccnc1` (centres unmarked) was -10.8%; that for `CCOC(=O)C(Oc1ccc(=O)n(-c2ccccc2)n1)C(C)=O` (centres unmarked) was 4.1%. As for `Cc1cc(C)c(S(=O)(=O)ON2C(=O)c3ccccc3C2=O)cc1C`, the “hERG current change (%, negative = inhibition) at 10uM” value was 0.662%. The value for `CC(CC(=O)NC1CCSC1=O)c1ccccc1` (centres unmarked) was 7.58%; that for `O=C(Cn1nc(-c2ccccc2)ccc1=O)N1CCCCC1` was -61.6%. Consider `COc1ccc(NC(=O)C2CCCN(C(=O)NC3CCCCC3)C2)cc1OC` (centres unmarked), for which the “hERG current change (%, negative = inhibition) at 10uM” value was -10.8%.

As to `CN(C)c1cc[n+](CCC(=O)Nc2cccc([N+](=O)[O-])c2N)cc1.[Cl-]`, the “hERG current change (%, negative = inhibition) at 10uM” value stood at 4.9%. The value for `CC(=O)c1ccc(OC(=O)COc2ccccc2)cc1` was 10.1%; that for `O=C(O)C1C2C=CC3(O2)C1C(=O)N1c2ccccc2C2OCCC2C13` (centres unmarked) was 6.95%; that for `c1ccc2c(c1)CC1(CCCC1)N=C2N1CCOCC1` was 20.8%.

In the case of `O=C(c1ccc(Br)o1)N(Cc1ccccc1)Cc1ccccc1`, the “hERG current change (%, negative = inhibition) at 10uM” value is given as -5.43%. Consider `NC(=O)C1(N2CCCCC2)CCN(Cc2ccccc2Cl)CC1`, for which the “hERG current change (%, negative = inhibition) at 10uM” value was 3.95%. Next, `O=C(c1cc2cc(Cl)ccc2o1)N1CCCC1`: 2.54%; `COc1cc2c(cc1OC)CN(c1nc(CN3CCOCC3)nc3sc4c(c13)CCCC4)CC2`: -73.6%; `O=C(c1ccccc1)N1CCN(C2CC(=O)N(CCc3ccccc3)C2=O)CC1` (centres unmarked): -12.5%. The value for `Cc1ccc(NC(=O)c2ccccc2NS(=O)(=O)c2ccc(Cl)s2)cc1` was 5.94%. As for `CCc1ccc(NC(=O)CCc2nc3cccnc3n2Cc2ccc(OC)cc2)cc1`, the “hERG current change (%, negative = inhibition) at 10uM” value turned out to be 2.41%. Next, `Cc1nc(/C(N)=N/OC(=O)Cc2ccccc2)no1`: 3.53%.

Consider `CC(=O)C1=C(O)C(=O)N(c2cc(C(C)(C)C)on2)C1c1ccc(C(C)C)cc1` (centres unmarked), for which the “hERG current change (%, negative = inhibition) at 10uM” value was -1.87%. Next, `CN(C)C1NC(=O)c2cc(-c3ccccc3)sc2N1` (centres unmarked): -9.64%; `CC(C)Cc1nnc(NC(=O)CCC(=O)N2CC(C)CC(C)C2)s1` (centres unmarked): -50.8%. The value for `O=C1CN(S(=O)(=O)c2cc(Cl)ccc2Cl)c2ccccc2N1` was 2.42%. The value for `O=C(O)/C=C\c1cc2c(cc1[N+](=O)[O-])OCO2` was 9.56%; that for `Cc1ccc(NC(=O)NNC(=O)c2cc3ccccc3cc2O)c(C)c1` was 27.4%; that for `CCCc1ccc2oc(C(=O)NCCc3cnn(C)c3)c(C)c2c1` was -40.4%. On to `CCN(CC)S(=O)(=O)c1cccc(NC(=O)c2cccc(S(=O)(=O)N3CCCC3)c2)c1`, for which the “hERG current change (%, negative = inhibition) at 10uM” value is given as -80.8%. Consider `COc1ccc(C(C)=O)cc1COC(=O)c1ccc(S(=O)(=O)N2CCOCC2)cc1`, for which the “hERG current change (%, negative = inhibition) at 10uM” value is recorded as -2.54%.

With `C/C(=N\NC(=O)c1c([N+](=O)[O-])c(C)nn1C)c1ccc(NC(=O)C2CCCC2)cc1`, the “hERG current change (%, negative = inhibition) at 10uM” value came out at 13.7%.
